From ChEMBL document CHEMBL4888484, “Replenishing the malaria drug discovery pipeline: Screening and hit evaluation of the MMV Hit Generation Library 1 (HGL1) against asexual blood stage Plasmodium falciparum ,using a nano luciferase reporter read-out” (2022) come the findings set out here.

The structures appear in SMILES notation. About 540 (0.36%) of roughly 150,000 compounds showed an effect of 50% or more. Some of the results follow.

For the assay, the system named is Plasmodium falciparum. Put plainly: Primary screen in NF54 nanoGlo assay, in single point, at 2uM, 72h; a lower Z score goes with more inhibition. In kind it is functional, Erythrocyte. The following applies: timepoint 72 hour.
The % Inhibition is the change of the read-out against control, counted positive when it falls. As to `COCCn1nnnc1[C@]1(N(C)C)CCCN(S(=O)(=O)c2cc(F)cc(F)c2)C1`, the “% Inhibition” value came to 7% and the Z score was -1.2.

`Cc1c(-c2noc(C(=O)NCCCc3ccccc3)n2)oc2c(C)cccc12`: the “% Inhibition” value is listed as -7% and the Z score was found to be 0.87.

In the case of `Cc1cc(NC(=O)c2ccc(COc3ccc4ccccc4c3)o2)nn1C`, the “% Inhibition” value was found to be 30% and the Z score is reported as -1.16.

For `Cc1ncsc1CCN(C)c1ncnc2[nH]ncc12`, the “% Inhibition” value is listed as -9% and the Z score worked out at 1.48.

In the case of `CCCN(CCC)c1ccc(-c2nc(-c3ccccc3)no2)cn1`, the “% Inhibition” value is given as -9% and the Z score stood at 1.56.

For the compound `O=C(Cc1cccc2ccccc12)NC1CC(O)C(CO)C1` (centres undefined), the “% Inhibition” value is recorded as -2% and the Z score is recorded as 0.34.

On to `N#CC1(c2nc(-c3nccc(N)n3)no2)CCCCC1`, for which the “% Inhibition” value is listed as 0% and the Z score is -0.05.

Take `CC(C)(C)NC(=O)CCC(=O)N1CC[C@H](n2cnc3ccccc32)C1`: the “% Inhibition” value was -4% and the Z score is 0.88.

On to `CC[C@@H](C(=O)NCCCOC)N(c1ccc(C)cc1)S(C)(=O)=O`, for which the “% Inhibition” value is listed as -12% and the Z score was found to be 1.1.

`Cc1c(NC(=O)Cc2ccc(Cl)cc2)cccc1-c1nc2ncccc2o1`: the “% Inhibition” value is on record as -6% and the Z score came out at 0.88.

Regarding `O=C(NCCOc1cccc(F)c1)NCc1ccco1`, the “% Inhibition” value is 2% and the Z score was -0.24.

For `CCN1CCCCC1CNC(=O)NC1CCCC(C)C1C` (centres undefined), the “% Inhibition” value is 8% and the Z score is -0.96.

As to `O=C(CN1CCC[C@H]1C(=O)O)NCc1cccs1`, the “% Inhibition” value is given as -7% and the Z score came out at 1.12.

For the compound `Cc1cn(C2CCCCC2)nc1NC(=O)c1cncc(C)c1O`, the “% Inhibition” value was -10% and the Z score amounted to 1.68.

Turning to `Cn1c(C(C)(C)C)nc2cc(NCc3ncc[nH]3)ccc21`, the “% Inhibition” value is recorded as -4% and the Z score came to 0.37.

As for `Cn1ccc2cc(CN3CCC([C@H](O)c4cccs4)CC3)ccc21`, the “% Inhibition” value is listed as -11% and the Z score is 1.11.

In the case of `CC(NC(CC1CCC1)c1ccccc1)c1cn(C)nn1` (centres undefined), the “% Inhibition” value was 6% and the Z score is recorded as -0.82.

With `CC1(C2CCN(C(=O)Nc3cn[nH]c3)CC2)OCCO1`, the “% Inhibition” value was -4% and the Z score is reported as 0.57.

Take `COC(C)(C)[C@]12CC(O)(C(C)C)ON1[C@H]1CCCCC1N2O` (some centres undefined): the “% Inhibition” value is given as -15% and the Z score was found to be 2.28.

`Cn1cc(-c2ccc3c(n2)N(C(=O)c2ccccc2S(C)(=O)=O)CCC3)cn1`: the “% Inhibition” value was -6% and the Z score was 0.65.

On to `CCCCS(=O)(=O)N1CC2(CCCCC2)C[C@@H]1COCc1ccccc1`, for which the “% Inhibition” value was -13% and the Z score was 2.24.

For the compound `Cn1c(-c2ccc(Br)cc2)c(C2c3ccccc3C(=O)N2CC2CCCO2)c2ccccc21` (centres undefined), the “% Inhibition” value turned out to be 6% and the Z score was -0.8.

Regarding `O=C(NC1CCCC1Oc1ccccc1)c1ccoc1` (centres undefined), the “% Inhibition” value is recorded as -4% and the Z score is given as 0.56.

Regarding `CCOC(=O)C1CCN(c2ncc(S(=O)(=O)c3cc(Cl)ccc3OC)c(N)n2)CC1`, the “% Inhibition” value is -1% and the Z score was 0.13.

As for `Cc1cccc(N(C)C(=O)c2sc(NC(=O)c3ccccc3Cl)cc2C)n1`, the “% Inhibition” value is reported as -10% and the Z score is on record as 1.11.

Consider `CCCCn1c(NC(=O)c2ccccc2Cl)c(S(=O)(=O)c2ccccc2)c2nc3ccccc3nc21`, for which the “% Inhibition” value is given as -7% and the Z score turned out to be 0.7.

`CC(=O)NCCOc1ccc(Br)cc1`: the “% Inhibition” value is reported as -6% and the Z score worked out at 0.73.

Regarding `O=C(NCc1ccccn1)c1cc(-c2cccc(Cl)c2)[nH]n1`, the “% Inhibition” value came out at 2% and the Z score is on record as -0.26.

Consider `COCCNC(=O)C[C@H](c1c[nH]c2ccccc12)C1CCCCC1`, for which the “% Inhibition” value was -3% and the Z score is on record as 0.49.

In the case of `CC(C)Cn1cc(C(F)F)c(C(=O)N2CCC[C@H]2c2ccncc2)n1`, the “% Inhibition” value came out at 2% and the Z score is reported as -0.2.

Regarding `Cc1ccccc1CN1CCCN(C(=O)Cn2cnccc2=O)CC1`, the “% Inhibition” value is -15% and the Z score came out at 2.44.

Consider `CCOc1ccccc1NC(=O)N1CCC[C@H]1c1nc(C(C)C)no1`, for which the “% Inhibition” value is recorded as -2% and the Z score came to 0.3.

As for `O=C1[C@@H]2CCCN2c2ccc(S(=O)(=O)N3CCOCC3)cc2N1Cc1ccccc1F`, the “% Inhibition” value is -8% and the Z score was 1.16.

For the compound `CCCn1cc(C(=O)N2CCCCc3cc(OC)ccc32)cn1`, the “% Inhibition” value is given as -3% and the Z score worked out at 0.4.

Consider `O=C(NCc1cccs1)N[C@H]1CC[C@H](Oc2ncccn2)CC1`, for which the “% Inhibition” value was -17% and the Z score came to 2.93.

For `Nc1ccnc(N2CC(c3ccccn3)C2)n1`, the “% Inhibition” value is -2% and the Z score turned out to be 0.3.

Regarding `CC(=O)N1CCO[C@@H](CNc2cnsn2)C1`, the “% Inhibition” value stood at 1% and the Z score is listed as -0.17.

As to `O=C(c1ccc(-n2cnnc2)nc1)N(Cc1ccc2c(c1)OCO2)C1CC1`, the “% Inhibition” value is -13% and the Z score was found to be 1.71.

With `CO[C@@]12CC[C@H](OCC3CC3)C[C@@H]1N(C(=O)c1nn(C)cc1Cl)CC2`, the “% Inhibition” value came out at 4% and the Z score is on record as -0.61.

Consider `CCNCC(=O)NCc1ccc(Cl)cc1`, for which the “% Inhibition” value was 2% and the Z score is -0.44.

Consider `O=C(c1ccsc1)N1CC(Oc2nccs2)C1`, for which the “% Inhibition” value was -25% and the Z score is on record as 4.22.

For `CNC(=O)C[C@H](C)Nc1ccc(C)cc1C`, the “% Inhibition” value was -6% and the Z score was found to be 0.81.
